Laboratory results: the RNAGym collection of RNA variant scans (doi:10.1093/nar/gkz1192)
Read counts are not given, so values of variants with three or more changes are uncertain.

B1: CPEB3 Ribozyme (parent)
chain: UAACAGGGGGCCACAGCAGAAGCGUUCACGUCGCAGCCCCUGUCAGAUUCUGGUGAAUCUGCGAAUUCUGCUGUAUAUCUC

Variants of: B1
Assay: self-cleavage, relative activity (ratio to wild type); higher = more cleavage; in vitro, sequencing
How it was run: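 CPEB3 self-cleaving ribozyme mutant libraries were made by rounds of error-prone PCR, barcoded, and transcribed in vitro with T7 RNA polymerase for 5 hours at 37°C. Cleavage occurred during transcription and a 15 min DNase I step before EDTA stop. RNAs were reverse transcribed with template switching and Illumina-sequenced, with DNA sequencing mapping barcodes to variants. Relative activity is the variant's cleaved/total read fraction divided by wild type's (minimum 5 reads), averaged across three batches.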

Variant	self-cleavage
A2G A21G C23A A35G U54A G55U U78C	0.29
A2G A21G C29A A35U	0.06
A2G A21G C71A U74C	0.31
A2G A21G U25C C32U	0.32
A2G A21G U26C U74C	0.62
A2G A21G U43C A47G U60C U80A	0.33
A2G A21G U48G U60C	0.34
A2G A21G U49G U67C	0.24
A2G A21G U54A U80C	0.32
A2G A21G U54C A64G U78C	0.04
A2G A21G U76A	0.42
A2G A21G U78C	0.21
A2G A21U A28U U31C A35U A56C	0.07
A2G A21U U26G U72C U80A	0.06
A2G A21U U60A	0.22
A2G A28C U43C G46A U48C U69G	0.18
A2G A28G A45G	0.29
A2G A28G A56G A64G	0.17
A2G A28G C29A U72A	0.36
A2G A28G G52A	0.33
A2G A28G G55U A65G U69C	0.04
A2G A28G U48C U54A U69C A77G	0.06
A2G A28U C38U	0.16
A2G A28U U31C A56U A64G C68A	0.06

Variant	self-cleavage
A2G A28U U41G U66C U78C	0.16
A2G A28U U43C	0.43
A2G A28U U49C	0.21
A2G A28U U54C	0.56
A2G A35C A56U	0.21
A2G A35C U41C A56U U69C	0.15
A2G A35C U49C	0.34
A2G A35C U72A	0.23
A2G A35G A56G A64U	0.56
A2G A35G A57C U58C U66C U74A U78C	0.1
A2G A35G G55U A64U	0.2
A2G A35G U43A U74A	1.27
A2G A35G U54C U78C	1.07
A2G A35G U60A U72C	0.79
A2G A35G U78C	1.22
A2G A35U A45U A47C C50U A64U	0.16
A2G A35U G52A U60C	0.54
A2G A35U G55C A65U U67A	0.29
A2G A35U U43C U58C U78C U80C	0.04
A2G A35U U51C	0.36
A2G A35U U60C	0.09
A2G A35U U60C A75U U76C	0.26
A2G A35U U69C	0.43
A2G A45C U58C	0.16

Variant	self-cleavage
A2G A45G A47G C50G G52A	0.19
A2G A45G A64U U69C C81A	0.31
A2G A45G C81A	0.74
A2G A45G U49C A75G	0.23
A2G A45U A56U U76A	0.08
A2G A45U G52U U78C	0.36
A2G A45U U51A U60C U69A	0.08
A2G A45U U69C	0.2
A2G A47C A56G	0.14
A2G A47C A64G	0.21
A2G A47G U49C A57G U60C A64G	0.11
A2G A47G U51C	0.55
A2G A47G U54A U78C	0.75
A2G A47G U72A U80C	0.61
A2G A56C U72C A75U	0.15
A2G A56G A64G U76C	0.12
A2G A56G G73C	0.94
A2G A56G U60C U78A	0.14
A2G A56G U72C	0.51
A2G A56G U78G	0.43
A2G A56U A64G U72C	0.1
A2G A56U A77C	0.14
A2G A57G G70U U72C	0.1
A2G A57G U58C C81A	0.06

Variant	self-cleavage
A2G A64G G73U	0.95
A2G A64G U78C	0.47
A2G A64U C81A	0.28
A2G A64U U66A U67C U80C	0.28
A2G A65G U66C U67C U78A	0.21
A2G A65G U69A	0.06
A2G A65G U69C A75G	0.19
A2G A77G U78C	0.56
A2G C4A A18G	1.08
A2G C4U A20G U25C A35G	0.19
A2G C4U U48C A56U U78C	0.55
A2G C4U U74A A75G	1.1
A2G C11A A13G A57G U66C	0.22
A2G C11A A13U U41A U54C G70A U72C	0.04
A2G C11A A21G U66C	0.09
A2G C11A A28U U49C	0.08
A2G C11A U41G G52C U66C U67C	0.06
A2G C11G A18U U41A C68U U80C	0.06
A2G C11G U54A A65G C71G	0.09
A2G C11U A13U A18G C62U U76C	0.06
A2G C11U A15G	0.1
A2G C11U A18U C23A C27A U72C	0.21
A2G C11U A20G A28G A57G U72C U76A	0.07
A2G C11U A45G U48C	0.05

Variant	self-cleavage
A2G C11U A57G	0.29
A2G C11U U25C A35U A47G A56G	0.18
A2G C12A G16A A20G A28U U72A U80A	0.17
A2G C12A G16C	0.08
A2G C12G A13G A20G U60G	0.09
A2G C12U A15U	0.61
A2G C12U A18G A21G C27A U48A	0.05
A2G C12U A45G A57G	0.43
A2G C12U U25C C34U	0.14
A2G C14A C29A U48A A64U	0.12
A2G C14A U58C	0.3
A2G C14G U26C U41G	0.1
A2G C14U A15G U26A A45G U54A A75G	0.1
A2G C17A C44U U54A A56G A77U	0.09
A2G C17U A18G A21C U41C	0.1
A2G C17U A20G U41C A75G	0.25
A2G C23A A28U U41A	0.27
A2G C23A G33A U72C	0.08
A2G C23G A56U A75C	0.3
A2G C23G U66C U72C U78C C81U	0.03
A2G C23U A56G U76A	0.4
A2G C23U U26C G36U	0.08
A2G C23U U43C G61A U80C	0.08
A2G C23U U60A	0.16

Variant	self-cleavage
A2G C23U U66C U72C	0.06
A2G C27A U43A U48C A64U	0.16
A2G C29A U41A	0.21
A2G C29A U43C C44U C68A U72A	0.2
A2G C29G A35U A45G U80C	0.38
A2G C29G A47G U72A	0.18
A2G C29U U41A U58C	0.08
A2G C32A C38G U72C	0.36
A2G C32A U43C G53A U69A	0.07
A2G C32U U41G U80C	0.08
A2G C32U U69A	0.06
A2G C34A A35U U60G A64U U78C	0.12
A2G C34U U41C U67C U78C	0.44
A2G C34U U66C U74C A75G	0.04
A2G C37A U80C	0.25
A2G C37G U60C U67C	0.09
A2G C37G U67C	0.23
A2G C37U U43C A45U G63A U66C	0.06
A2G C37U U54C A56G	0.24
A2G C38U A77U U78C	0.32
A2G C38U U51A U76C	0.41
A2G C39A A45G	0.07
A2G C40A A45G U48A U72C	0.08
A2G C40A C68A	0.04

Variant	self-cleavage
A2G C40U A64G U74A	0.37
A2G C40U A64G U76A	0.2
A2G C40U G42A U51C	0.41
A2G C40U U67C U72A	0.08
A2G C59A C71U	0.09
A2G C62U U80G	0.5
A2G G6A A18U U60C U69C G73A	0.22
A2G G6A A20G G36A U74C	0.47
A2G G6A A21G	0.09
A2G G6A A35U	0.26
A2G G6A G10A C23G U72C	0.07
A2G G6A U41C U60A U74C	0.38
A2G G6A U76A	0.16
A2G G6U A15G A45U U67C	0.28
A2G G6U A15G U80C	0.95
A2G G6U A20G C29U C34U U43C U48C	0.06
A2G G7A A13G A15G U41A A57G	0.07
A2G G7A A13G U26C U41C	0.06
A2G G7A A18G	0.25
A2G G7A A18G A47G U67C	0.07
A2G G7A G61U	0.09
A2G G7A U49A A64U	0.07
A2G G7C A13U U72C	0.63
